The other results are listed elsewhere or left out.
T1: UNK ZnF1-6 (called full-length) (human, UniProt Q9C0B0 30-357)
T1 sequence: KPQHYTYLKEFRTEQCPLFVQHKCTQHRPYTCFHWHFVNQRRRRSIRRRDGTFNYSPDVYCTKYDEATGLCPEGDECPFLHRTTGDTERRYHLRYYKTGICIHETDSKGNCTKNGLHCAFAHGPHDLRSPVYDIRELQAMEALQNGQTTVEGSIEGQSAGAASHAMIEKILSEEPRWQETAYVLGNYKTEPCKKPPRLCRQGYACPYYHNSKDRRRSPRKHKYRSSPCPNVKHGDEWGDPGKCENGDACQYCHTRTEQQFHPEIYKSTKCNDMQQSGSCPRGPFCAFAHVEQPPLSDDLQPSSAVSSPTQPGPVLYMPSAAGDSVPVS

B1: chr9:127087347:127088938:-|three_prime_utr|ENSG00000136859|control|control|control (ssRNA)
RNA: GGGAGUUCUACAGUCCGACGAUCAUAUACAUGUGUAUGAGCCUCCCUUGUGCACGUAUGUGUAUACCACAUAUAUAUGCAUUUAGAUAUACAUCACAUGUGAUAUAUCUAGAUCCAUAUAUAGGUUUGCCUUAGAUACCUAAACAACAGAGGAUUGAGCAUCA
B2: chr12:131960804:131960905:+|CDS|ENSG00000183495|unk|total|mutant (ssRNA)
RNA: GGGAGUUCUACAGUCCGACGAUCCCCUCAGCAAGCCCGUCGGCACCCCAGUCUCCCAGUUAUCAAAUACAGCAGCUGAUGAACCGGAGCCCUGCAACCGGGCAGAACGUGAACAUCACCCUGCAGAGCGUGGGCCCUGUCGUCCAACAGAGGAUUGAGCAUCA
B3: chr14:75048437:75048538:-|CDS|ENSG00000119684|unk|total|mutant (ssRNA)
RNA: GGGAGUUCUACAGUCCGACGAUCUCAGAAGCGUGUGACUUCCGAUGAGAGGAGCAAUUUCCAGGAAGCAUGUAAUAAUAUUUCCGAUUCCUAUGAGAUGUUUAAUUUGCAGUCAAAAGCUGUGAAAAGAAAAACUACUGCAGACAACAGAGGAUUGAGCAUCA
B4: chr8:41661800:41661941:-|CDS|ENSG00000029534|control|control|control (ssRNA)
RNA: GGGAGUUCUACAGUCCGACGAUCGGUUCGACAGAUAGACUUGUCCAGCGCCGAUGCCGCCCAGGAGCACGAGGAGGUGACUGUAGAGGGGCCCCUGGAGGAUCCCAGUGAGCUGGAGGUCGAUAUUGAUUACUUUAUGAAACACAACAGAGGAUUGAGCAUCA
B5: chr15:77046258:77046342:-|3pUTR|ENSG00000140391|msi1_unk|FALSE|overlapping (ssRNA)
RNA: GGGAGUUCUACAGUCCGACGAUCAAAAAUAUUUACUGUAGUCCAAUAAGAUAGCAGCUGUACAAAAUGACUAAAAUAGAUUGUAGGAUCAUAUGGCGUAUAUCUUGGUUCAUCUUCAAAAUCAGAGACUGAGCUUUGAAACUACAACAGAGGAUUGAGCAUCA
B6: chr19:46720021:46720126:-|3pUTR|ENSG00000090372|unk|total|mutant (ssRNA)
RNA: GGGAGUUCUACAGUCCGACGAUCGCCGCUCCUGGUAUCAGAGCUGCUUUCCAGAGGGCAGCACAGCCAGGGCCGGGUGUCUUCCGGGAUCAGUUUUUCCAAGACUCCAGAAGGUGCCAGGUUCUCCCCUUGAGCUCCUGCUCCCAACAGAGGAUUGAGCAUCA
B7: chr3:127036549:127036650:+|3pUTR|ENSG00000114554|msi1|FALSE|unique (ssRNA)
RNA: GGGAGUUCUACAGUCCGACGAUCGUCUACUGGGACAGCAGUCUCCGAGCUACUCCGUACCUCCCUCUGCCAGGUCGUGGAGUUAGGCCCCAGUCCCUACUUGUCACUGGUUCCCACUGUGCUCCUAACUGUGCAGCACCUGGGCAACAGAGGAUUGAGCAUCA
B8: chr14:92003418:92006448:-|CDS|ENSG00000100815|control|control|control (ssRNA)
RNA: GGGAGUUCUACAGUCCGACGAUCGGAGAGAAUAUUAAUUCUAGAGAUGGACAUUGGCAAACUAAAAGGAGAAAAUGAAAAAAUAGUGGAAACAUACAGGGGAAAGGAAACAGAAUAUCAAGCGUUACAAGAGACUAACAUGAACAACAGAGGAUUGAGCAUCA
B9: chr20:7981316:7981417:-|3pUTR|ENSG00000125827|unk|total|mutant (ssRNA)
RNA: GGGAGUUCUACAGUCCGACGAUCUAAGUUUUCUAAGCAAUAUUUUUCAAGCCAGAAGUCCUCUAAGUCUUGCCAGUACAAGGCCGUCUUGUGAAGAAAAGUUGAAUACUGUUUUGUUUUCAUCUCAAGGGGUUCCCUGGGUCUCAACAGAGGAUUGAGCAUCA
B10: chr17:744420:744865:-|three_prime_utr|ENSG00000179409|control|control|control (ssRNA)
RNA: GGGAGUUCUACAGUCCGACGAUCAUCAGCAGCUUCUUACCUGUGCGGGAGCGAAAAAGCUGGGCUUCAACAUGGCAGGUCUGUAGGGGUCAGACCCGAGCAGCCUGGACUUUACAGUUAUGUGAAACUGUCCACAAAAAGUCACAACAGAGGAUUGAGCAUCA
B11: chrX:65741840:65741941:+|3pUTR|ENSG00000147065|msi1|FALSE|unique (ssRNA)
RNA: GGGAGUUCUACAGUCCGACGAUCAAAUUGUUUUUGGAGGGGUUUAUGCUCAAUCCAUGUUCUAUUUCAGUGCCAAUAAAAUUUAGGAAGACUUCACAGUGACUCAAUCGUUCUUUGUGGUAUGAGUGGGUAGCUGUAAGAUAUCAACAGAGGAUUGAGCAUCA
B12: ENSG00000198589:be:win_8201|CDS|ENSG00000198589|bound_else_gene|NA|bound_elsewhere_windowed (ssRNA)
RNA: GGGAGUUCUACAGUCCGACGAUCUCAUUCAGGCUUCAAGAGAGGGUCAUUGUGUCAUAUUCUAUGAAAACGGCCUCUUCUGUACAUUCAGUGUGAAUGGAAAACUCCAGGCCACGAUGGAAACAGAUGAUAACAUAAGAGCCACAACAGAGGAUUGAGCAUCA
B13: chr1:217137657:217137758:-|5pUTR|ENSG00000196482|msi1|total|mutant (ssRNA)
RNA: GGGAGUUCUACAGUCCGACGAUCCGGGCUCCAGGCCGGGCUCCCUAAACGGGUCAGCAAUUGGAGCGGGAAGGCCGGACAGGCCGGUGGCGUGGGGCGCACAAGCCCGGCAGCGAUAACCGGGGACGUCUGUACUGCUUCCAACAACAGAGGAUUGAGCAUCA
B14: ENSG00000035403:stop:overlap|stop_codon|ENSG00000035403|stop_codon|NA|stop_codon (ssRNA)
RNA: GGGAGUUCUACAGUCCGACGAUCAAAUUCGAACAGAUGCUGGAUUUACACUGCGCUGGGUUAGAAAGACUCCCUGGUACCAGUAGGCACCUGGCUGAGCCUGGCUGGCACAGAAACCUCUACUAAAAAGAAGGAAAAUGAUCUCAACAGAGGAUUGAGCAUCA

The binders below were run against T1, UNK ZnF1-6 (called full-length) (assay: nsRBNS (natural sequence RNA bind-n-seq); RBNS binding buffer (assumed for nsRBNS): 25 mM Tris pH 7.5, 150 mM KCl, 3 mM MgCl2, 0.01% Triton X-100, 500 ug/ml BSA, 20 U/ml SUPERase-In, 4 C; UNK is unkempt and MSI1 is Musashi-1; names of the RNAs are library labels; protein concentration not given here; high values mean tight binding).

Row | Binder | binding signal [enrichment R]
1 | B1 | 0.359
2 | B2 | 1.09
3 | B3 | 0.356
4 | B4 | 0.976
5 | B5 | 0.801
6 | B6 | 0.705
7 | B7 | 0.733
8 | B8 | 0.554
9 | B9 | 0.53
10 | B10 | 0.542
11 | B11 | 0.698
12 | B12 | 0.445
13 | B13 | 0.948
14 | B14 | 1.24

Reference: publication PMC12136788
